{
  "source": "the supplement of paper PMC11417369",
  "note": "± gives the standard deviation of the averaged measurements. The list shows a part of the results.",
  "data": [
    {"system": "PfAP2-G AP2 domain (GST-tagged)", "assay": "gcPBM binding intensity (ln(normalized median fluorescence intensity)); higher = stronger DNA binding", "in_short": "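Probes on an Agilent 4 × 180k array were primer-extended, double-stranded and 36 bp long, taken from intergenic genomic regions, with negative controls added. GST-tagged P. falciparum DNA-binding domains from E. coli, about 25 μg on average, were applied to the array for 1 h in 1× PBS containing 1% milk, 0.2 mg/ml BSA, 0.5% salmon testes DNA and 0.03% Triton X-100. Binding intensity, obtained after Alexa488 anti-GST antibody detection and a 488 nm scan, is the highest Masliner-normalised natural-log median intensity across replicate spots of either probe orientation.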", "values": [
      {"sequence": "TATAAATAAATTTATACACACACACCCATATATATA [CACACA_site8183]", "gcPBM binding intensity (ln)": "10.1 ± 0.17"},
      {"sequence": "AAAAAAAAAAGACACACACACAAATACAAATGGTAA [CACACA_site6906]", "gcPBM binding intensity (ln)": "10.05 ± 0.021"},
      {"sequence": "TTTGTTATATTTAATACACACATATTATAAACCCAT [CACACA_site3716]", "gcPBM binding intensity (ln)": "10.3 ± 0.4"},
      {"sequence": "ATAAAGCCATACAATACACACATTTTACATGGCTGT [CACACA_site5756]", "gcPBM binding intensity (ln)": "9.96 ± 0.085"},
      {"sequence": "TAAAATTAGGAAATTGCACACAAAAAAAAACATATT [CACACA_site9349]", "gcPBM binding intensity (ln)": "10.17 ± 0.099"},
      {"sequence": "ATATTTTATGTAAAGGTGCAAAACAACATTAAAAAA", "gcPBM binding intensity (ln)": "10.3 ± 0.23"},
      {"sequence": "ACTACATAAAATGACACACACAAACTTTAAAATTTA [CACACA_site3474]", "gcPBM binding intensity (ln)": "10.3 ± 0.33"},
      {"sequence": "CACCTGCACGATTGCACACAAATATGTTTTGAAGAT [CACACA_site2103]", "gcPBM binding intensity (ln)": "10.3 ± 0.15"},
      {"sequence": "TATATTTGGAAACACACACACAAAAAAAAAAAAAAA [CACACA_site2474]", "gcPBM binding intensity (ln)": "9.9 ± 0.61"},
      {"sequence": "ATATTTTCTAATCAATGTACTTATTCTACACATTAA [XGTACX_site5774]", "gcPBM binding intensity (ln)": "11.3 ± 0.92"},
      {"sequence": "ACCCAATTTTTTAGTACACACATATAAATATATAAA [CACACA_site4944]", "gcPBM binding intensity (ln)": "11.6 ± 1.1"},
      {"sequence": "AACACATACAGACACACACACAAAAAAAAAAAAAAA [CACACA_site6322]", "gcPBM binding intensity (ln)": "10.2 ± 0.73"},
      {"sequence": "TTTTTTTTTTTTCACGTGCACTATACATATAAGTAA", "gcPBM binding intensity (ln)": "10.4 ± 0.47"},
      {"sequence": "CTCTTGTCATTTTGCACACACACATGGATAGGTTAT [CACACA_site5655]", "gcPBM binding intensity (ln)": "10.4 ± 0.23"},
      {"sequence": "AAACAAAAGTAGAAGGTAGAGTATTTTATATTTAAA [GTGCAC_negctrl_site503]", "gcPBM binding intensity (ln)": "9.68 ± 0.18"},
      {"sequence": "AAACCTTTAGAAAATCGTACAAAACATAACCACCTA [XGTACX_site1098]", "gcPBM binding intensity (ln)": "11.2 ± 0.71"},
      {"sequence": "ATTTTTTTTTTTTGTTTTTTCTTACAAATTAAATGA [CACACA_negctrl_site1457]", "gcPBM binding intensity (ln)": "9.88 ± 0.16"},
      {"sequence": "AAATAACTCATGGGTTGTACTTAAAAAAAAAAAGAT [XGTACX_site4168]", "gcPBM binding intensity (ln)": "11.3 ± 0.78"},
      {"sequence": "TTAATCTAGAGAAATTGTACATTTTATTAACACAAT [XGTACX_site1190]", "gcPBM binding intensity (ln)": "10.8 ± 0.33"},
      {"sequence": "ATAAAAGAAAACAATAGTACTTTAGTTTTTCTTTTT [XGTACX_site5686]", "gcPBM binding intensity (ln)": "10.7 ± 0.15"},
      {"sequence": "ATATATACATTTCTATGTACATATGTATATATGTAT [XGTACX_site1522]", "gcPBM binding intensity (ln)": "11 ± 0.45"},
      {"sequence": "ATATATCACATGAACATTAAAAAAAAAAAAGAGGGG [TGCATGCA_negctrl_site187]", "gcPBM binding intensity (ln)": "10.6 ± 0.52"},
      {"sequence": "TAAAATGATAAATGAATGTGATCATTTTATAAAATA [CACACA_negctrl_site674]", "gcPBM binding intensity (ln)": "9.9 ± 0.042"},
      {"sequence": "AATATTTATAAATTTACACACACACCGGTGAACATA [CACACA_site8579]", "gcPBM binding intensity (ln)": "10.35 ± 0.078"},
      {"sequence": "TTTATACAATTAGACACACACAAAAAGTATAAATAT [CACACA_site6637]", "gcPBM binding intensity (ln)": "10.3 ± 0.16"}
    ]}
  ]
}
